Enrichment score data for 18 molecules are collected here from the supplement of paper PMC10369915.

The list shows a part of the results. Cut-off read from the data, not from the text of the source: active = 3.2 or more and inactive = the rest. Only a few entries rise above the background.
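Note: displayed peptides selected on beads carrying the immobilized SH2 domain, with library peptides lacking any tyrosine serving as negative controls.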

The target of the first assay is SHP2 C-SH2 domain E139D. Briefly: enrichment score (SH2-bound / input frequency) (ratio); bacterial display of known human phosphotyrosine sites (pTyr-Var adds point mutants) read by sequencing; higher = stronger binding; tyrosines were phosphorylated by kinases first. The note with it: peptide library: Human pTyr.
With EEKARMIYEDAISIL [RGS17_HUMAN_137_YA], the enrichment score was inactive: 0.71.

In the case of TEEQKKAYNAMKKLG [SCN5A_HUMAN_1495_YA], the enrichment score is inactive: 1.34.

With GMGKAENYELASVEL [ATP4A_HUMAN_7_YA], the enrichment score was inactive: 0.676.

As to KVSRDTLYEAVREVL [RL10A_HUMAN_11], the enrichment score is inactive: 1.29.

On to ESATHIQYLFEQESF [SH2D3_HUMAN_283_YA], for which the enrichment score was inactive: 0.995.

Consider DNCSEEMYRLMLQCW [RET_HUMAN_981], for which the enrichment score was inactive: 0.931.

Consider ASPEYQDYVYLEGTQ [RHG35_HUMAN_308], for which the enrichment score was inactive: 0.703.

Regarding KKKDEGSYDLGKKPI [SDC4_HUMAN_180], the enrichment score was inactive: 1.6.

Regarding GRPDSPVYANLQELK [RHG12_HUMAN_243], the enrichment score is inactive: 1.03.

As to EQAQKVRYEGSAALT [SDPR_HUMAN_395_YA], the enrichment score was inactive: 0.702.

Regarding SRNMGGPYGGGNYGP [ROA2_HUMAN_331], the enrichment score was inactive: 0.511.

Take SGQISNGYSAVPSPG [SC6A4_HUMAN_47]: the enrichment score was inactive: 0.373.

Take KTERSKSYDEGLDDA [RHG21_HUMAN_881_YA]: the enrichment score is inactive: 1.18.

In the case of TGLVPENYVVFLGGG [RHG42_HUMAN_870], the enrichment score is inactive: 0.961.

As for TWIENKLYGMSDPNW [RET_HUMAN_1062], the enrichment score was inactive: 0.841.

On to KLQDEANYHLAGSRM [RIPK1_HUMAN_384_YA], for which the enrichment score is inactive: 0.744.

On to MDGKEPIYTLPAIIS [RHG42_HUMAN_376], for which the enrichment score is inactive: 0.912.

Take FGLSRDVYEEDSAVK [RET_HUMAN_900_YA]: the enrichment score is inactive: 0.792.

The next assay addresses SHP2 C-SH2 domain wild-type. The assay is described as above. The note with it: peptide library: Human pTyr.
With EEKARMIYEDAISIL [RGS17_HUMAN_137_YA], the enrichment score was inactive: 0.554.

On to TEEQKKAYNAMKKLG [SCN5A_HUMAN_1495_YA], for which the enrichment score is inactive: 1.03.

With GMGKAENYELASVEL [ATP4A_HUMAN_7_YA], the enrichment score is inactive: 0.637.

With KVSRDTLYEAVREVL [RL10A_HUMAN_11], the enrichment score is inactive: 1.24.

On to ESATHIQYLFEQESF [SH2D3_HUMAN_283_YA], for which the enrichment score was inactive: 1.2.

In the case of DNCSEEMYRLMLQCW [RET_HUMAN_981], the enrichment score is inactive: 0.867.

In the case of ASPEYQDYVYLEGTQ [RHG35_HUMAN_308], the enrichment score was inactive: 0.66.

Turning to KKKDEGSYDLGKKPI [SDC4_HUMAN_180], the enrichment score was inactive: 1.77.

For the molecule GRPDSPVYANLQELK [RHG12_HUMAN_243], the enrichment score was inactive: 1.51.

Regarding EQAQKVRYEGSAALT [SDPR_HUMAN_395_YA], the enrichment score was inactive: 0.811.

For the molecule SRNMGGPYGGGNYGP [ROA2_HUMAN_331], the enrichment score was inactive: 0.529.

For SGQISNGYSAVPSPG [SC6A4_HUMAN_47], the enrichment score is inactive: 0.442.

As to KTERSKSYDEGLDDA [RHG21_HUMAN_881_YA], the enrichment score is inactive: 1.02.

With TGLVPENYVVFLGGG [RHG42_HUMAN_870], the enrichment score was inactive: 1.29.

Turning to TWIENKLYGMSDPNW [RET_HUMAN_1062], the enrichment score was inactive: 0.737.

Regarding KLQDEANYHLAGSRM [RIPK1_HUMAN_384_YA], the enrichment score was inactive: 0.678.

MDGKEPIYTLPAIIS [RHG42_HUMAN_376]: the enrichment score is inactive: 0.596.

As for FGLSRDVYEEDSAVK [RET_HUMAN_900_YA], the enrichment score was inactive: 0.923.

In another assay the target is SHP2 N-SH2 domain L43F. The description is as above. The following applies: peptide library: Human pTyr.
Consider EEKARMIYEDAISIL [RGS17_HUMAN_137_YA], for which the enrichment score is inactive: 0.618.

Turning to TEEQKKAYNAMKKLG [SCN5A_HUMAN_1495_YA], the enrichment score was inactive: 1.06.

Consider GMGKAENYELASVEL [ATP4A_HUMAN_7_YA], for which the enrichment score was inactive: 0.59.

As for KVSRDTLYEAVREVL [RL10A_HUMAN_11], the enrichment score was inactive: 1.23.

Take ESATHIQYLFEQESF [SH2D3_HUMAN_283_YA]: the enrichment score is inactive: 0.878.

Take DNCSEEMYRLMLQCW [RET_HUMAN_981]: the enrichment score was inactive: 0.875.

Turning to ASPEYQDYVYLEGTQ [RHG35_HUMAN_308], the enrichment score was inactive: 0.886.

With KKKDEGSYDLGKKPI [SDC4_HUMAN_180], the enrichment score is inactive: 1.59.

Consider GRPDSPVYANLQELK [RHG12_HUMAN_243], for which the enrichment score was inactive: 1.1.

Turning to EQAQKVRYEGSAALT [SDPR_HUMAN_395_YA], the enrichment score was inactive: 0.716.

Regarding SRNMGGPYGGGNYGP [ROA2_HUMAN_331], the enrichment score is inactive: 0.445.

With SGQISNGYSAVPSPG [SC6A4_HUMAN_47], the enrichment score was inactive: 0.506.

For KTERSKSYDEGLDDA [RHG21_HUMAN_881_YA], the enrichment score was inactive: 1.02.

As to TGLVPENYVVFLGGG [RHG42_HUMAN_870], the enrichment score is inactive: 1.37.

For the molecule TWIENKLYGMSDPNW [RET_HUMAN_1062], the enrichment score was inactive: 0.774.

As to KLQDEANYHLAGSRM [RIPK1_HUMAN_384_YA], the enrichment score was inactive: 0.641.

On to MDGKEPIYTLPAIIS [RHG42_HUMAN_376], for which the enrichment score is inactive: 0.946.

With FGLSRDVYEEDSAVK [RET_HUMAN_900_YA], the enrichment score is inactive: 0.977.

In the next assay the target is SHP2 N-SH2 domain T42A. The description is as above. The following applies: peptide library: Human pTyr.
As to EEKARMIYEDAISIL [RGS17_HUMAN_137_YA], the enrichment score is inactive: 0.592.

TEEQKKAYNAMKKLG [SCN5A_HUMAN_1495_YA]: the enrichment score is inactive: 1.21.

For the molecule GMGKAENYELASVEL [ATP4A_HUMAN_7_YA], the enrichment score was inactive: 0.707.

In the case of KVSRDTLYEAVREVL [RL10A_HUMAN_11], the enrichment score is inactive: 1.23.

ESATHIQYLFEQESF [SH2D3_HUMAN_283_YA]: the enrichment score was inactive: 0.926.

In the case of DNCSEEMYRLMLQCW [RET_HUMAN_981], the enrichment score is inactive: 0.958.

ASPEYQDYVYLEGTQ [RHG35_HUMAN_308]: the enrichment score was inactive: 0.761.

On to KKKDEGSYDLGKKPI [SDC4_HUMAN_180], for which the enrichment score was inactive: 1.37.

On to GRPDSPVYANLQELK [RHG12_HUMAN_243], for which the enrichment score is inactive: 1.12.

With EQAQKVRYEGSAALT [SDPR_HUMAN_395_YA], the enrichment score was inactive: 0.824.

Turning to SRNMGGPYGGGNYGP [ROA2_HUMAN_331], the enrichment score was inactive: 0.437.

Turning to SGQISNGYSAVPSPG [SC6A4_HUMAN_47], the enrichment score was inactive: 0.67.

In the case of KTERSKSYDEGLDDA [RHG21_HUMAN_881_YA], the enrichment score is inactive: 0.942.

With TGLVPENYVVFLGGG [RHG42_HUMAN_870], the enrichment score is inactive: 0.974.

Consider TWIENKLYGMSDPNW [RET_HUMAN_1062], for which the enrichment score was inactive: 0.571.

As to KLQDEANYHLAGSRM [RIPK1_HUMAN_384_YA], the enrichment score is inactive: 0.654.

MDGKEPIYTLPAIIS [RHG42_HUMAN_376]: the enrichment score is inactive: 0.946.

Turning to FGLSRDVYEEDSAVK [RET_HUMAN_900_YA], the enrichment score was inactive: 0.638.

In a further assay the target is SHP2 N-SH2 domain T52S. Described as above. The following applies: peptide library: Human pTyr.
For the molecule EEKARMIYEDAISIL [RGS17_HUMAN_137_YA], the enrichment score was inactive: 0.682.

As to TEEQKKAYNAMKKLG [SCN5A_HUMAN_1495_YA], the enrichment score is inactive: 1.23.

Take GMGKAENYELASVEL [ATP4A_HUMAN_7_YA]: the enrichment score is inactive: 0.648.

As to KVSRDTLYEAVREVL [RL10A_HUMAN_11], the enrichment score is inactive: 1.42.

For ESATHIQYLFEQESF [SH2D3_HUMAN_283_YA], the enrichment score is inactive: 1.04.

Take DNCSEEMYRLMLQCW [RET_HUMAN_981]: the enrichment score is inactive: 0.926.

Consider ASPEYQDYVYLEGTQ [RHG35_HUMAN_308], for which the enrichment score was inactive: 0.717.

In the case of KKKDEGSYDLGKKPI [SDC4_HUMAN_180], the enrichment score was inactive: 1.7.

As for GRPDSPVYANLQELK [RHG12_HUMAN_243], the enrichment score was inactive: 1.09.

In the case of EQAQKVRYEGSAALT [SDPR_HUMAN_395_YA], the enrichment score was inactive: 0.721.

In the case of SRNMGGPYGGGNYGP [ROA2_HUMAN_331], the enrichment score was inactive: 0.64.

SGQISNGYSAVPSPG [SC6A4_HUMAN_47]: the enrichment score was inactive: 0.596.

Take KTERSKSYDEGLDDA [RHG21_HUMAN_881_YA]: the enrichment score is inactive: 1.26.

With TGLVPENYVVFLGGG [RHG42_HUMAN_870], the enrichment score was inactive: 0.503.

As to TWIENKLYGMSDPNW [RET_HUMAN_1062], the enrichment score was inactive: 0.896.

In the case of KLQDEANYHLAGSRM [RIPK1_HUMAN_384_YA], the enrichment score is inactive: 0.868.

For MDGKEPIYTLPAIIS [RHG42_HUMAN_376], the enrichment score was inactive: 0.837.

In the case of FGLSRDVYEEDSAVK [RET_HUMAN_900_YA], the enrichment score was inactive: 0.871.

A further assay has as its target SHP2 N-SH2 domain wild-type. Described as above. The note with it: peptide library: Human pTyr.
For the molecule EEKARMIYEDAISIL [RGS17_HUMAN_137_YA], the enrichment score was inactive: 0.539.

On to TEEQKKAYNAMKKLG [SCN5A_HUMAN_1495_YA], for which the enrichment score was inactive: 1.17.

Regarding GMGKAENYELASVEL [ATP4A_HUMAN_7_YA], the enrichment score was inactive: 0.66.

Take KVSRDTLYEAVREVL [RL10A_HUMAN_11]: the enrichment score is inactive: 1.7.

For ESATHIQYLFEQESF [SH2D3_HUMAN_283_YA], the enrichment score is inactive: 0.961.

With DNCSEEMYRLMLQCW [RET_HUMAN_981], the enrichment score is inactive: 0.92.

As to ASPEYQDYVYLEGTQ [RHG35_HUMAN_308], the enrichment score is inactive: 0.805.

Consider KKKDEGSYDLGKKPI [SDC4_HUMAN_180], for which the enrichment score was inactive: 1.43.

For the molecule GRPDSPVYANLQELK [RHG12_HUMAN_243], the enrichment score was inactive: 1.04.

As for EQAQKVRYEGSAALT [SDPR_HUMAN_395_YA], the enrichment score was inactive: 0.815.

For SRNMGGPYGGGNYGP [ROA2_HUMAN_331], the enrichment score is inactive: 0.523.

Regarding SGQISNGYSAVPSPG [SC6A4_HUMAN_47], the enrichment score was inactive: 0.528.

On to KTERSKSYDEGLDDA [RHG21_HUMAN_881_YA], for which the enrichment score was inactive: 1.25.

For TGLVPENYVVFLGGG [RHG42_HUMAN_870], the enrichment score is inactive: 1.08.

Regarding TWIENKLYGMSDPNW [RET_HUMAN_1062], the enrichment score is inactive: 0.762.

With KLQDEANYHLAGSRM [RIPK1_HUMAN_384_YA], the enrichment score was inactive: 0.618.

With MDGKEPIYTLPAIIS [RHG42_HUMAN_376], the enrichment score was inactive: 0.924.

As for FGLSRDVYEEDSAVK [RET_HUMAN_900_YA], the enrichment score was inactive: 0.948.
